# Experimental data: PubChem BioAssay AID759 (NMMLSC, 2007)
# In all, about 190,000 compounds went through this assay and about 270 (0.14%) were called active. Inconclusive results, whose numbers are uncertain, are shown with a selection of clear calls.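 The calls were made as follows: active = GTP binding activity at least 20% away from the 100% baseline, either lowered as inhibitor or raised as activator; inconclusive = flagged as likely green fluorescent, judged across all proteins in the well; inactive = the rest.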
# Target: GTPase HRas (Homo sapiens) (UniProt P01112)
# Assay: HRas wt fluorescent GTP binding changes, either direction – biochemical, wildtype, bead-based flow cytometry, multiplex, primary screen (AID 759);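 also: 0% = unlabeled GTP competition control and 100% = no-compound control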
# Settings: GST-Ras wt beads, Bodipy-FL-GTP binding, at 10 µM, actives lie on both sides
# Sequence of UniProt P01112 (P01112 whole entry, looked up): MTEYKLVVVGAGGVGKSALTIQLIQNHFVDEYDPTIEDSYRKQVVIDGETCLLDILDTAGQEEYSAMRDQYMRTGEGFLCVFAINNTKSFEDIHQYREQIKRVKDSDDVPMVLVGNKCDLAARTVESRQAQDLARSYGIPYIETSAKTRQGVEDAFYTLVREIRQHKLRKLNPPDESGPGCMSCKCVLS
row,SMILES,GTP binding activity
1,COc1cc2c(cc1OC)-c1cc(NC3CCCCCCC3)nc(=O)n1CC2,active: 77%
2,CC(C)CCN(C(=S)NC(=O)C1CCCCC1)c1c(N)n(Cc2ccccc2)c(=O)[nH]c1=O,inactive: 98%
3,Cc1nn(C)c(Sc2ccccc2N)c1[N+](=O)[O-],inactive: 103%
4,COc1ccc(-c2nsc(SCC(=O)NCC3CCCO3)n2)cc1 (stereo not drawn),inactive: 95%
5,Cn1nnc2cc(NC(=O)N3CC4(C)CC3CC(C)(C)C4)ccc21 (stereo not drawn),inconclusive: 102%
6,CCOC(=O)c1c(C)oc(NC(=O)COc2ccc(Cl)cc2C)c1C#N,inactive: 96%
7,N#CC(C#N)=C1C=C2C=C(N3CCCCCC3)CCC2CC1 (stereo not drawn),inconclusive: 121%
8,Cc1ccc2c(c1)NC(=O)C(CC(=O)NCCN(C)C)O2 (stereo not drawn),inconclusive: 106%
9,O=C(Nc1nnc(CC(=O)N2CCOCC2)s1)C1COc2ccccc2O1 (stereo not drawn),inconclusive: 100%
10,Cn1c(=O)c2c(nc(N3CCCCCC3)n2CC(=O)c2ccc(Br)cc2)n(C)c1=O,inconclusive: 104%
11,O=C(Nc1cccc(Br)c1)c1ccc(OC2CSC2)cc1,inactive: 99%
12,Cc1ccc(/C=N/n2c(COc3ccccc3)n[nH]c2=S)o1,inconclusive: 94%
13,Cc1nnsc1C(=O)NNS(=O)(=O)c1ccccc1,inconclusive: 106%
14,COc1ccc2[nH]c3c(=O)n4c(nc3c2c1)SCCC4,inconclusive: 94%
15,Cc1cc(=O)n2nc(N3CCCC(C(=O)N4CCN(c5ccccc5)CC4)C3)sc2n1 (stereo not drawn),inconclusive: 104%
16,O=C(O)C1CCCCC1C(=O)NCc1ccc(Cl)c(Cl)c1 (stereo not drawn),inconclusive: 90%
17,Cc1ccc(C(=O)N/N=C(/CC(=O)c2cccs2)C(F)(F)F)cc1,inconclusive: 92%
18,Fc1ccc(NC(=S)N2CCc3ccccc3C2)c(F)c1,inactive: 96%
19,CCOC(=O)Cn1c(-c2ccccn2)nc2ccccc21,inconclusive: 96%
20,COc1ccc(C2CC(C(F)(F)F)n3nc(C(=O)Nc4c(C)n(C)n(-c5ccccc5)c4=O)c(Cl)c3N2)cc1 (stereo not drawn),inactive: 98%
21,O=C(c1cccc(C(=O)N2CCN(c3ncccn3)CC2)c1)N1CCN(c2ncccn2)CC1,inconclusive: 107%
22,O=C(COC(=O)/C=C/c1ccc2c(c1)OCO2)Nc1ccc(S(=O)(=O)N2CCCC2)cc1,inconclusive: 93%
23,Brc1ccc(CSc2ccc3nnc(-c4cccnc4)n3n2)cc1,inconclusive: 90%
24,CCOC(=O)C(NC(=O)c1ccccc1)=C1C=C(C)OC(C)=C1,inconclusive: 90%

row,SMILES,GTP binding activity
1,C/C(=N\Nc1ccc(S(N)(=O)=O)cc1[N+](=O)[O-])c1ccc2c(c1)OCO2,inactive: 89%
2,Fc1cc(F)c2nc(Nc3nc4cc5c(cc4s3)OCO5)sc2c1,inconclusive: 93%
3,CC(=O)NC(=S)Nc1ccccc1F,inconclusive: 95%
4,COc1ccccc1C(=O)N(CN1CCCC1=O)c1cccc(Cl)c1,inconclusive: 105%
5,CC1SC(C)C(=O)N(CC(=O)NC2CCCCC2)C1=O (stereo not drawn),inactive: 94%
6,O=C(NCCN1CCCCCC1)C1CC(=O)N(CCc2ccccc2)C1 (stereo not drawn),inactive: 96%
7,CN(C)S(=O)(=O)c1cc(NC(=O)CN2CCN(c3ccccc3F)CC2)ccc1Cl,inactive: 98%
8,CCC(C)(C)NC(=O)CN(Cc1cccs1)C(=O)CCC(=O)Nc1nccs1,inconclusive: 104%
9,CC1=C(C(=O)Nc2ccc(F)c(F)c2)C(c2cccs2)NC(=S)N1 (stereo not drawn),inactive: 102%
10,Cc1nc(N2CCN(c3ccccn3)CC2)c2c(C)c(C(=O)Nc3ccc(F)cc3F)sc2n1,inconclusive: 89%
11,O=C(Nc1ccc(N2CCOCC2)cc1)c1ccc2c(c1)OCO2,inactive: 99%
12,c1ccc(CN2CCN(CCOCCOc3cccc4ccccc34)CC2)cc1,inactive: 83%
13,Cc1nn(CC(=O)Nc2cc(S(=O)(=O)N(C)C)ccc2Cl)c(C)c1[N+](=O)[O-],inconclusive: 102%
14,Cc1ccc(S(=O)(=O)N2CCCCC2)cc1NC(=O)CSc1nnc(N)s1,inconclusive: 97%
15,NS(=O)(=O)c1ccc(N/N=C/c2ccccc2Br)cc1,inactive: 95%
16,COc1cc(N2CCOCC2)ncn1,inconclusive: 104%
17,CN(C)c1cccc2c(/C=N/O)ccc(N(C)C)c12,inactive: 95%
18,COc1cccc(OCCNC(=O)c2cc([N+](=O)[O-])cc([N+](=O)[O-])c2)c1,inconclusive: 92%
19,COc1cc(/C=C/C(=O)OCC(=O)NC(=O)NC23CC4CC(CC(C4)C2)C3)ccc1OCC#N,inactive: 98%
20,Cc1nc2sc(C(c3ccc(Cl)cc3)N3CCN(C(=O)c4ccco4)CC3)c(O)n2n1 (stereo not drawn),inconclusive: 102%
21,CCOc1ccc(C(=O)NCc2ccco2)cc1,inconclusive: 105%
22,CCOC(=O)N1CCC2(CC1)C(C#N)=C(N)Oc1c2c(C)nn1-c1cccc(Cl)c1,inconclusive: 92%
23,CCN(CC)S(=O)(=O)c1cccc(NC(=O)c2ccc(C#N)cc2)c1,inactive: 96%
24,COc1ccc(/C=N/Nc2cc(C)nc(-n3nc(C)cc3C)n2)c(OC)c1,inconclusive: 80%

row,SMILES,GTP binding activity
1,O=C(Nc1cccc(Cl)c1N1CCCC1)c1ccc(Br)o1,inconclusive: 103%
2,CC(=O)Nc1ccc(NC(=O)COC(=O)c2ccco2)cc1,inconclusive: 90%
3,COc1ccc(C(=O)c2nccc3ccccc23)cc1,inactive: 95%
4,COc1ccc(N(C)C2=NS(=O)(=O)c3ccccc32)cc1,inactive: 100%
5,COC(=O)c1cccnc1NC(=S)NC(C)C,inactive: 95%
6,CCSc1nnc(NC(=O)[C@@H](NC(=O)c2ccccc2F)C(C)C)s1,inconclusive: 166%
7,COc1ccc(CCNc2c([N+](=O)[O-])c(=O)oc3ccccc23)cc1OC,inconclusive: 109%
8,COc1cc2[nH]c(=S)nc(NC3CCCCCC3)c2cc1OC,active: 66%
9,Cc1cc(=O)[nH]c2c(N=Nc3ccc(O)cc3)c(N)nn12,active: 63%
10,COc1ccc(/C=N/OCC(=O)N=Nc2c(O)[nH]c3ccc(Br)cc23)cc1OC,inconclusive: 95%
11,O=C(NCC1OCCc2ccccc21)c1cc(COc2c(F)cccc2F)on1 (stereo not drawn),inconclusive: 91%
12,O=C1CC(c2ccc(F)cc2)Sc2ccccc2N1 (stereo not drawn),inactive: 114%
13,COc1ccc(CN(C)C2CCCCC2)c(C)c1C,inconclusive: 104%
14,COc1ccc(CC(=O)Nc2cc(=O)n(C)c(=O)n2C)cc1,inconclusive: 104%
15,CCOc1ccccc1NC(=O)c1cc(Cl)ccc1NC(=O)c1ccco1,inconclusive: 104%
16,CCc1c(O)nc(SCC(N)=O)n(-c2ccccc2F)c1=O,inconclusive: 106%
17,COCCNC(=O)/C(C#N)=C/C=C/c1ccccc1[N+](=O)[O-],inconclusive: 96%
18,COc1ccc(CNC(=O)CN(C)S(=O)(=O)c2ccc(Cl)cc2)cc1,inconclusive: 97%
19,O=C(/C=C/c1ccccc1)NC(NC(=S)Nc1ccc(C(=O)O)cc1)C(Cl)(Cl)Cl (stereo not drawn),inactive: 87%
20,O=c1nc2c(O)cccn2c2c1c(=O)[nH]c1ccccc12,active: 59%
21,Cc1ccc(NC(=O)CCOc2ccccc2)cc1S(=O)(=O)Nc1ccccc1Cl,inconclusive: 92%
22,Cc1ccccc1Cn1cc(NC(=O)c2noc3c2CC(C(C)(C)C)CC3)cn1 (stereo not drawn),inconclusive: 113%
23,CCOc1ccc(C(=O)c2cc([N+](=O)[O-])ccc2Cl)cc1,inactive: 100%
24,COCCNC(=O)c1cc2oc3ccccc3c2n1C,inactive: 99%

row,SMILES,GTP binding activity
1,Cc1ccc(C)c(NC(=S)NC(NC(=O)N(C)C)C(Cl)(Cl)Cl)c1 (stereo not drawn),inconclusive: 99%
2,COc1ccc(-c2coc3cc4oc(=O)cc(C)c4cc23)cc1F,inconclusive: 98%
3,O=C(NCc1ccco1)c1cc2ccccc2o1,inconclusive: 94%
4,Cc1ccc(SCC(=O)NC(=O)Nc2ccc3c(c2)OCCO3)cc1C,inconclusive: 92%
5,CCCCC(=O)Nc1cc(N(C)C)nc2ccccc12,inconclusive: 92%
6,O=C(NC1CCN(Cc2ccccc2)CC1)c1ccc(N2CC3CC(C2)c2cccc(=O)n2C3)c([N+](=O)[O-])c1 (stereo not drawn),inactive: 100%
7,Cc1ccc(Nc2ccc(C(F)(F)F)cc2[N+](=O)[O-])cc1,inconclusive: 93%
8,OC(CNCCc1ccc(Cl)cc1)COc1ccc2ccccc2c1 (stereo not drawn),inactive: 80%
9,CCCn1c(=O)c(C(=O)Nc2ncccc2C)c(O)c2ccccc21,inconclusive: 89%
10,Cc1cccc(NC(=O)N2CCCC2C(=O)Nc2ccccc2)c1 (stereo not drawn),inconclusive: 91%
11,O=C(NC1CCCCC1)C(Cc1ccccc1)N1C(=O)C2C3CCC(C3)C2C1=O (stereo not drawn),inconclusive: 110%
12,COc1ccc(S(=O)(=O)N(C)C)cc1NC(=O)CSc1nnc(-c2cccnc2)o1,inactive: 95%
13,Cc1nn(CCCC(=O)N2CCN(c3ccc(F)cc3)CC2)c(C)c1[N+](=O)[O-],inconclusive: 98%
14,COC(=O)C1=C(C)Nc2c(c(=O)n(C)c(=O)n2C)C1c1ccc(C)cc1 (stereo not drawn),inconclusive: 89%
15,Fc1ccc(Nc2nc3ccccc3s2)cc1,inconclusive: 95%
16,COc1ccc(NC(=O)c2cc(-c3ccc(C)o3)nc3ccccc23)cc1OC,inconclusive: 94%
17,Cc1ccc(C2=NN(S(C)(=O)=O)C(c3ccc4c(c3)OCO4)C2)cc1 (stereo not drawn),inconclusive: 115%
18,COc1cccc(C(=O)Nc2cccc(C(=O)NCC(C)C)c2)c1,inactive: 100%
19,O=C(c1ccco1)N1N=C2CCCCCC2C1(O)C(F)(F)F (stereo not drawn),inactive: 94%
20,Cc1ccc(C(=O)N2CCOCC2)c(F)c1F,inactive: 95%
21,CCOc1ccc2cc(/C=C/C(=O)c3ccco3)c(Cl)nc2c1,inconclusive: 113%
